Measured values from PMC3562248.
These are yes or no findings as the source states them, for the method shown. Binding seen in cells or lysates may run through a third protein. Some results given as binding are weak or reduced against the parent protein; the word gives no strength. Each block holds one substance with its values, some of them ahead of it.

Sequences of proteins named here, by UniProt entry; tags and fusion partners are left off. A change or cut given only in a name is not applied to a line headed by its entry. Residues count along the entry.
UniProt Q13330: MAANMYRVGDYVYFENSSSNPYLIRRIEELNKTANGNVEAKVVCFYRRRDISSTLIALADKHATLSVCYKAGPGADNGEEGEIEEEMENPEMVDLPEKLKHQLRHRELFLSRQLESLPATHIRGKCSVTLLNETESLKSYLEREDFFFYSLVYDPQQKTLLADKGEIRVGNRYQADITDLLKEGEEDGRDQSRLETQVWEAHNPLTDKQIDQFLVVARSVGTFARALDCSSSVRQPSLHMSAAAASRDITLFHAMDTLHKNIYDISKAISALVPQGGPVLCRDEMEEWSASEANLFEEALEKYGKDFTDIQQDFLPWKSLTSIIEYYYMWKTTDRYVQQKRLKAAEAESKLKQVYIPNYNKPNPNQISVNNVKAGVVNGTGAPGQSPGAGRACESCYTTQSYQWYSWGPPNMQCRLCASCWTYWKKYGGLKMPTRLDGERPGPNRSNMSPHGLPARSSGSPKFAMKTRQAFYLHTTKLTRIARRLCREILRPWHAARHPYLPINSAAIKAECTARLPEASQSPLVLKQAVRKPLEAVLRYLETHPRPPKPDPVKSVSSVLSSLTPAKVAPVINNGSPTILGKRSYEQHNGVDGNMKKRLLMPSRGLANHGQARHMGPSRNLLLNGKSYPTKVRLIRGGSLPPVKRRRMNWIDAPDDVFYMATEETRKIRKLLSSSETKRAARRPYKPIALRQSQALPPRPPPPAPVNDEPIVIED
Flag-MTA1(1–460), expressed in 293T cells: residues 1-460 of Q13330
Flag-MTA1(454–715), expressed in 293T cells: residues 454-715 of Q13330
UniProt O94776: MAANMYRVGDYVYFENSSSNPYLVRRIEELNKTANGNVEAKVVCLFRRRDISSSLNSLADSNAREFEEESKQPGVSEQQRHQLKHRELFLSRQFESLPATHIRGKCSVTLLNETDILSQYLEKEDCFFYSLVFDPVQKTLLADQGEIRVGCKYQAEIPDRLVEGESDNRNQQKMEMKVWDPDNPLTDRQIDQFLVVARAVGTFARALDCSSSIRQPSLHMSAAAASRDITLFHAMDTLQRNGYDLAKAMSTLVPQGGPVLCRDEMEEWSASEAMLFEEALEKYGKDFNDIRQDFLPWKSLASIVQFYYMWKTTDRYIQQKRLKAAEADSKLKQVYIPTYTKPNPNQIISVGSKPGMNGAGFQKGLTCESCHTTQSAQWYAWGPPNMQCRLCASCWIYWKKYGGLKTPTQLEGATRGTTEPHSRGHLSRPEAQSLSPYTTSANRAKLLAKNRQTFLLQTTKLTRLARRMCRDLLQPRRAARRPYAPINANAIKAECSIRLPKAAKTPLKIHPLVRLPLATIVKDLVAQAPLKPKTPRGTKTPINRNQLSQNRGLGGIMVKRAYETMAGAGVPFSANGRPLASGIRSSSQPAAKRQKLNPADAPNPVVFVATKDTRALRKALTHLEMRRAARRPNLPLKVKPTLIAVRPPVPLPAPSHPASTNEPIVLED
UniProt Q13547: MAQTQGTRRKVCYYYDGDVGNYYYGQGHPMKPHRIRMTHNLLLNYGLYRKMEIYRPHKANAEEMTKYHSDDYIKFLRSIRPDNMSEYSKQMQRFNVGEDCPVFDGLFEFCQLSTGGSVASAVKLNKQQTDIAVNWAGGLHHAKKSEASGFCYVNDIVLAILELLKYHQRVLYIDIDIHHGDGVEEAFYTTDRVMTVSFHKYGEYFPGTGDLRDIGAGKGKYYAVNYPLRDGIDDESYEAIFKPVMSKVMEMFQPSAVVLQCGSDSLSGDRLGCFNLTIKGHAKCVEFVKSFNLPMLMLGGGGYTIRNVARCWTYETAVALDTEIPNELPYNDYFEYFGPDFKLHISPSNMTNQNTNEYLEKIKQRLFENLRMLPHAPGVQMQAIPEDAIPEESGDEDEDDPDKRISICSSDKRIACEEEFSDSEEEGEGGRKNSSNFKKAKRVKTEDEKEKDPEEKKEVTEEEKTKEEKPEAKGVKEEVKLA
UniProt Q92769: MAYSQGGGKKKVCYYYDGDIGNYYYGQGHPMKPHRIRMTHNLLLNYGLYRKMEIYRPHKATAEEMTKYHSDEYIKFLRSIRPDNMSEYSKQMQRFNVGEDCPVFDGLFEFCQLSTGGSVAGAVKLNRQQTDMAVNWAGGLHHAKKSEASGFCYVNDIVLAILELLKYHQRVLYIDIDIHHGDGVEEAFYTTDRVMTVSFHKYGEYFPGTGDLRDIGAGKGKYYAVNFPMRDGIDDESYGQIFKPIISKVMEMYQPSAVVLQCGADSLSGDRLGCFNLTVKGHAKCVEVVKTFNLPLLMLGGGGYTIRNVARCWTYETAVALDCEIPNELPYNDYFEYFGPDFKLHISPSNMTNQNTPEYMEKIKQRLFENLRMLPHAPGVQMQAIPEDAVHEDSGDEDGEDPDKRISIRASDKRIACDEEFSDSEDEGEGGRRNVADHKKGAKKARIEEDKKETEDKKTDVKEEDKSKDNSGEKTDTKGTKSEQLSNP
UniProt Q14839: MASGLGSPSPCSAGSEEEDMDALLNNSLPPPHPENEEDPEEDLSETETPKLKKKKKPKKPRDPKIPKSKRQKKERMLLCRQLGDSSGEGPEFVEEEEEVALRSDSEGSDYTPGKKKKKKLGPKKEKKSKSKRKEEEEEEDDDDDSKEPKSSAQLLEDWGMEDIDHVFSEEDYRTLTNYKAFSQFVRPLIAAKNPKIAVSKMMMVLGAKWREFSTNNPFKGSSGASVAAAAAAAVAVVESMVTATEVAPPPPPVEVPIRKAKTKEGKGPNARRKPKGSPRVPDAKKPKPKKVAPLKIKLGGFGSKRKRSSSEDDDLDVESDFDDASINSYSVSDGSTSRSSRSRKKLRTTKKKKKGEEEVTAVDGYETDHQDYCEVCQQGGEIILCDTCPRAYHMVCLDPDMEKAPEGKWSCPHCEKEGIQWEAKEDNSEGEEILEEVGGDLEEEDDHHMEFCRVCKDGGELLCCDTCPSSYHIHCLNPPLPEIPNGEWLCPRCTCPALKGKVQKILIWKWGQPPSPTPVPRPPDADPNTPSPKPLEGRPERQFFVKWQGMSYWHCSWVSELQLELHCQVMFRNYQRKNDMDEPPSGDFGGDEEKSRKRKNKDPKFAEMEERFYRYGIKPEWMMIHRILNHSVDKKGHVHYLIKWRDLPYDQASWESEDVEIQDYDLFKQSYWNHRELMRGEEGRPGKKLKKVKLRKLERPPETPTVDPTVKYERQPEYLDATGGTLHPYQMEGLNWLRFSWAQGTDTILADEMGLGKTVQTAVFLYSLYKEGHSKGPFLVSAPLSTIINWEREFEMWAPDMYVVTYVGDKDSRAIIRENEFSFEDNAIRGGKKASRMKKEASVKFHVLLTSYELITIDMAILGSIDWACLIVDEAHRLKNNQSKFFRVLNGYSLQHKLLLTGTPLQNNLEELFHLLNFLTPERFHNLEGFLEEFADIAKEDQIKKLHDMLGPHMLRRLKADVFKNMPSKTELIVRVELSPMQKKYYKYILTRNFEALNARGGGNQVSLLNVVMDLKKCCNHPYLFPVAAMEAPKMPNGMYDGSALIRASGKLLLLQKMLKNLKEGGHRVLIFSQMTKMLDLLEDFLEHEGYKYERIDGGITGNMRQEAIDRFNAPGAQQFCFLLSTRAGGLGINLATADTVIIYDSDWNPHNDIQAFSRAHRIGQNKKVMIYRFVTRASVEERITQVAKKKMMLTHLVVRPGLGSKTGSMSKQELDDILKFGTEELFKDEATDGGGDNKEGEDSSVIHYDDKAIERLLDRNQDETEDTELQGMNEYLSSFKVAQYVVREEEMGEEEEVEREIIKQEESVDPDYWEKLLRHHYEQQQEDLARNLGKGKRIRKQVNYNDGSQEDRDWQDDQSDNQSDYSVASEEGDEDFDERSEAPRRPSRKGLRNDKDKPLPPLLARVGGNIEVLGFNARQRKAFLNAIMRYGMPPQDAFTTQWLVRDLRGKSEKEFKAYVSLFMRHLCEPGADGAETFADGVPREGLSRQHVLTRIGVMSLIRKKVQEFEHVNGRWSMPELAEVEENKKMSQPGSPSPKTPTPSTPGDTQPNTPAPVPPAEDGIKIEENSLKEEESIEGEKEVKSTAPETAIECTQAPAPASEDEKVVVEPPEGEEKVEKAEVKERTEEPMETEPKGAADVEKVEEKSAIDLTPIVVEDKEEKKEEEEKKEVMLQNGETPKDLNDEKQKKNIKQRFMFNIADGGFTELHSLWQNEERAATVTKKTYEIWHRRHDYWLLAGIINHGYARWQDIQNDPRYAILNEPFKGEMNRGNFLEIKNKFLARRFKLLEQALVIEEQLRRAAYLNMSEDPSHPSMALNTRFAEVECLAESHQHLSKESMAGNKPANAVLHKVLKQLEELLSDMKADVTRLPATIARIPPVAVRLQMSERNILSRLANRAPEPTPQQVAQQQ

Assays:
[1] = molecular target: histone H3 N-terminal tail peptide (aa 1-21), unmodified, C-terminal biotin (UniProt P68431); experiment: pull-down; 35S-methionine-labelled in vitro translated protein (TNT reticulocyte lysate, diluted 1:10 with binding buffer) on immobilised H3 tail peptides; autoradiography; only the target purified
[2] = molecular target: histone H3 N-terminal tail peptide (aa 1-21), unmodified, C-terminal biotin (UniProt P68431); experiment: pull-down; whole cell extracts of 293T cells expressing Flag- or GFP-tagged MTA proteins on immobilised H3 tail peptide; western blot; only the target purified
[3] = molecular target: histone H3 N-terminal tail peptide (aa 1-21), unmodified, C-terminal biotin (UniProt P68431); experiment: pull-down; about 1 μg biotinylated histone tail peptide on streptavidin agarose beads, about 250 μg HeLa nuclear extract, 20 mM HEPES pH 7.9, 150 mM KCl, 0.1% NP-40, 3 h at 4°C; western blot; only the target purified
[4] = molecular target: Flag-MTA1(454–715), expressed in 293T cells (UniProt Q13330); experiment: co-IP; whole cell extracts of 293T cells transfected with Flag-tagged MTA1 or MTA2 proteins, anti-Flag M2 beads, western blot for endogenous subunits
[5] = molecular target: Flag-tagged MTA2 N-terminal region 1–434, expressed in 293T cells (UniProt O94776); experiment: as above
[6] = molecular target: Flag-MTA1 full length, expressed in 293T cells (UniProt Q13330); experiment: as above
[7] = molecular target: Flag-MTA1(1–460), expressed in 293T cells (UniProt Q13330); experiment: as above
[8] = molecular target: Flag-tagged full-length MTA2, expressed in 293T cells (UniProt O94776); experiment: as above
[9] = molecular target: Flag-tagged MTA2 C-terminal region 427–668, expressed in 293T cells (UniProt O94776); experiment: as above
[10] = molecular target: acetylated histone H3 tail peptide (aa 1-21) (UniProt P68431); experiment: pull-down; 35S-methionine-labelled in vitro translated protein (TNT reticulocyte lysate, diluted 1:10 with binding buffer) on immobilised H3 tail peptides; autoradiography; only the target purified
[11] = molecular target: H3K9 methylated histone H3 tail peptide (aa 1-21), degree of methylation not stated (UniProt P68431); experiment: as above

binding [1]: no binding
Substance: MTA2 N-terminal fragment (1–434), in vitro translated (from UniProt O94776 1-434) (domain or fragment)

binding [3]: no binding
Substance: NCoR (endogenous, HeLa) (from UniProt O75376 1-2440)

binding [4]: no binding
binding [5]: binds
binding [6]: binds
binding [7]: binds
binding [8]: binds
binding [9]: no binding
Substance: HDAC1 (endogenous, 293T) (from UniProt Q13547 1-482) (enzyme)

binding [2]: no binding
Substance: Flag-tagged MTA2 N-terminal region 1–434, expressed in 293T cells (from UniProt O94776 1-434) (domain or fragment)

binding [10]: binds
binding [1]: binds
binding [11]: binds
Substance: MTA1(454–715), in vitro translated (from UniProt Q13330 454-715) (domain or fragment)

binding [4]: no binding
binding [5]: binds
binding [6]: binds
binding [7]: binds
binding [9]: no binding
Substance: HDAC2 (endogenous, 293T) (from UniProt Q92769 1-488) (enzyme)

Further lines, the substance ahead of its results:

Substance: Flag-tagged MTA2 C-terminal region 427–668, expressed in 293T cells (from UniProt O94776 427-668) (domain or fragment)
binding [2]: binds

Substance: MTA2 C-terminal fragment (427–668), in vitro translated (from UniProt O94776 427-668) (domain or fragment)
binding [1]: binds

Substance: GFP-MTA1(454–715), expressed in 293T cells (from UniProt Q13330 454-715) (domain or fragment)
binding [2]: binds

Substance: CoREST (endogenous, HeLa) (from UniProt Q9UKL0 1-485)
binding [3]: no binding

Substance: CHD4 (endogenous, 293T) (from UniProt Q14839 1-1912)
binding [5]: binds
binding [8]: binds
binding [9]: no binding
